Laboratory results taken from PubChem BioAssay AID463173 (ICCB-Longwood Screening Facility, Harvard Medical School, 2010).
The whole screen tested about 52,000 compounds, of which about 1,700 (3.3%) were called active. Rule as the data show it: active = survival mostly below about 52% (no sharp cut-off); inactive = mostly above about 56%. This is one part of the list.

These molecules were tested on Wild type (assay: growth inhibition of S. aureus wild type versus tarO mutant, primary screen, teichoic acid synthesis inhibitors, RN4220, OD600 (AID 463173)). Conditions: S. aureus RN4220 wild type/DeltatarO growth, OD600, 18 h, hits give low values, screened at 18.75 µg/mL (by protocol).

SMILES | survival
COc1cccc(CNC(=O)C2CCCN(S(=O)(=O)c3ccc4c(ccn4C)c3)C2)c1OC (centres undefined) | inactive: 78%
Cc1cc(C)c(-c2csc(-c3cc4ccccc4oc3=O)n2)cc1C | inactive: 55%
CCCN1CCN(CCNC(=O)Nc2cc(Cl)c(OC)cc2OC)CC1 | inactive: 94%
CC(=O)Nc1ccc(NC(=O)CC(C)n2ccc(C)n2)cc1 (centres undefined) | inactive: 64%
O=S(=O)(NCCc1csc2nc(-c3ccc(F)cc3)nn12)c1ccc2c(c1)OCCO2 | inactive: 131%
COc1ccc(NC(=O)CCn2nc(-c3ccc(Cl)cc3)c3ccccc3c2=O)cc1 | inactive: 82%
O=C(Nc1nnc(N2CCCC2)s1)Nc1cc(F)ccc1F | inactive: 82%
Cc1oc(-c2cccc(Cl)c2)nc1CN1CCC(C(=O)NCc2ccc(F)cc2)CC1 | inactive: 92%
O=C(NCCc1ccccc1)c1c2c(nc3ccccc13)C(=O)N(C1CCCCC1)C2 | inactive: 83%
CCCCNC(=O)c1c[nH]c2c(F)cccc2c1=O | inactive: 103%
O=C1c2ccc(Oc3ccc4c(c3)C(=O)N(c3ncccn3)C4=O)cc2C(=O)N1c1ncccn1 | inactive: 118%
Cc1cc2ccccc2nc1SCC(N)=O | inactive: 115%
CCCN1C(=O)c2[nH]nc(-c3ccc(F)cc3)c2C1c1ccc(O)c(OCC)c1 (centres undefined) | inactive: 73%
CC(=O)c1cccc(NC(=O)C2CCN(c3nnc(-n4cccc4)s3)CC2)c1 | inactive: 66%
CCc1cccc(Nc2c3c(nc4ncnn24)CCC3)c1 | inactive: 108%
Cc1ccc(N2C(=O)CSC23C(=O)Nc2ccccc23)cc1F (centres undefined) | inactive: 75%
Cc1cccc(-c2nc3c4ccccc4n(CC(=O)Nc4cc(F)ccc4F)c(=O)n3n2)c1 | inactive: 83%
Cc1cc2c(n1-c1ccc(C(=O)NCc3cccc(Br)c3)cc1)CCC(C)C2 (centres undefined) | inactive: 140%
CCOC(=O)c1c(-c2ccccc2)oc2ccc(OCc3ccc(C)cc3)cc12 | inactive: 17%
Cc1ccccc1Cn1c(=O)n(CCCCC(=O)NCc2ccc3c(c2)OCO3)c(=O)c2ccccc21 | inactive: 97%
CCOc1ccc(C(=O)Nc2c(C)nc(Nc3ccccc3)nc2Nc2ccccc2)cc1OCC | inactive: 77%
COc1ccc(S(=O)(=O)Nc2c(C)n(C)n(-c3ccccc3)c2=O)cc1Br | inactive: 76%
COc1ccc(C(=O)Cn2c(=O)n3nc(CCn4nc(C)cc4C)nc3c3cc(OC)c(OC)cc32)cc1 | inactive: 153%

SMILES | survival
O=C(NCc1ccncc1)Nc1ccccc1 | inactive: 118%
COc1ccc(CCNc2nc(-c3ccccc3OC)cc(C(F)(F)F)n2)cc1OC | active: -8%
COc1ccccc1N1CCN(C(=O)CSc2nc(C)cc(=O)[nH]2)CC1 | inactive: 86%
CC(C)Nc1cc(N2CCN(C3CCCCC3)CC2)c2noc3c2c1C(=O)c1ccccc1-3 | inactive: 78%
CCOc1ccccc1CNC(=O)C1=C(C)C(=O)OC12CCN(C(C)=O)CC2 | inactive: 73%
CCOc1ccc(CNC(=O)C(C)n2ncn3cccc3c2=O)cc1 (centres undefined) | inactive: 88%
Cc1c(CN2CCOCC2)c(=O)n(-c2ccccc2)n1C | inactive: 104%
CCOC(=O)c1[nH]c(C)c(CCC(=O)Nc2ccc(C)cc2Cl)c1C | inactive: 75%
O=C(c1ccc(Br)cc1)N1CCC(c2nc3ccccc3s2)CC1 | inactive: 113%
Cc1ccc2c(c1)c1c(c(=O)n(-c3ccccc3C)c(=O)n1Cc1cccc(F)c1)n2C | inactive: 126%
Cc1ccc(Cl)cc1NC(=O)C(NS(=O)(=O)c1ccc2c(c1)CCC(=O)N2)c1ccccc1 (centres undefined) | inactive: 70%
CC1=C(c2ccc(F)cc2)S(=O)(=O)NC1=NCc1ccccc1Cl | inactive: 136%
CC(C)(C)C(=O)Nc1ccc2nc(SCc3ccccc3)sc2c1 | inactive: 82%
CCc1ccc(NCc2cc3cc(OC)c(OC)cc3n(CC(=O)Nc3ccc(F)cc3)c2=O)cc1 | inactive: 65%
Cc1cccc(NC(=O)CC2C(=O)OCCN2Cc2ccccc2)c1 (centres undefined) | inactive: 137%
NCC1Cc2ccccc2O1 (centres undefined) | inactive: 99%
CCC(=O)N1CCc2cc(S(=O)(=O)NC(Cc3ccccc3)C(=O)NCc3cccc(OC)c3)ccc21 (centres undefined) | inactive: 79%
COc1ccc(-c2cn3nc(N4CCCC(C(=O)NCCCOC(C)C)C4)sc3n2)cc1 (centres undefined) | inactive: 68%
Cc1ccccc1C(=O)NC(=O)Nc1ccc(-n2nc(C(F)(F)F)cc2C(F)(F)F)cc1 | inactive: 79%
COc1cccc(CNC(=O)CCn2c(=O)c3cccn3c3cccnc32)c1 | inactive: 87%
COc1ccc2cc(CNc3ccccc3)c(=O)n(CC(=O)Nc3ccc(C(C)=O)cc3)c2c1 | inactive: 54%
CCCN(CCC)c1cc(C)nc2nc(-c3ccc(Cl)cc3)nn12 | inactive: 87%
Cc1ccc(C(=O)CSc2nc(-c3ccccc3)nc3c2CCCC3)cc1C | inactive: 19%

SMILES | survival
COc1ccc(-c2csc3ncnc(Nc4cccc(F)c4)c23)cc1 | active: -3%
CC(=O)c1ccc(NC(=O)CC2Sc3ccccc3NC2=O)cc1 (centres undefined) | inactive: 78%
Cc1cc(Oc2nc3ccccn3c(=O)c2/C=C(\C#N)c2nc3ccccc3s2)ccc1Cl | inactive: 65%
CC1=C(C(=O)Nc2ccc(C)cc2C)C(c2cccs2)n2nc(SCc3ccc(Cl)cc3)nc2N1 (centres undefined) | inactive: 83%
Cc1ccc(NC(=O)C2CCN(C(=O)c3cnn(-c4ccccc4)c3-n3cccc3)CC2)cc1Cl | inactive: 71%
Cc1ccc(Nc2nc(C(N)=O)c(NC(=O)c3ccccc3Br)s2)cc1 | inactive: 71%
Cc1ccc(CSc2nc3cccnc3n2Cc2ccc(C(=O)NCc3cccs3)cc2)cc1 | inactive: 45%
Cc1nc2nc(NC(=O)C(C)C)[nH]n2c(=O)c1Cc1ccccc1 | inactive: 88%
ON(Cn1nnc2ccccc21)Cn1nnc2ccccc21 | inactive: 113%
CC(CNC(=O)Cn1c(-c2cccs2)cc2cc(Cl)ccc21)c1ccccc1 (centres undefined) | inactive: 73%
COc1cc(Cl)c(C)cc1NC(=O)CCn1cnc2onc(-c3ccc(F)cc3)c2c1=O | inactive: 73%
COCC(C)NS(=O)(=O)c1ccc(N2CCCCS2(=O)=O)cc1 (centres undefined) | inactive: 85%
CCN1C(C(=O)c2ccccc2)=C(NC(=O)c2ccc(Cl)cc2)c2ccccc2S1(=O)=O | inactive: 94%
COc1ccc(-n2nnnc2SCC(=O)N2CCCCC2C)cc1 (centres undefined) | inactive: 110%
CCOC(=O)c1ccc(NC(=O)c2sc3nc4n(c(=O)c3c2C)CCC4)cc1 | inactive: 119%
O=C(NCc1ccccc1)N(Cc1cccnc1)Cc1cc2cc3c(cc2[nH]c1=O)OCCO3 | inactive: 102%
Cc1ccc(C)c(S(=O)(=O)c2cn(Cc3ccccc3)c3cc(N4CCCC4)c(F)cc3c2=O)c1 | inactive: 89%
CCOc1ccc(NC(=O)Cn2c(=O)n(CC(=O)NCCc3ccccc3)c(=O)c3sccc32)cc1 | inactive: 85%
Cc1ccc2c(CC(=O)Nc3c(C(=O)c4ccc(F)cc4)oc4ccccc34)coc2c1C | inactive: 111%
CC(C)c1ccc(NC(=O)C(Cc2ccccc2)n2cccc2)cc1 (centres undefined) | active: 13%
Cc1cccc(C)c1NC(=O)c1cc(S(=O)(=O)N2CCCc3ccccc32)ccc1F | inactive: 140%
COc1cccc(C(=O)NCCc2sc(-c3cccc(C)c3)nc2C)c1 | inactive: 70%
Cc1ccc(-n2ccn(CC(=O)c3ccc(F)cc3)c(=O)c2=O)cc1C | inactive: 97%

SMILES | survival
CC(=O)N1CCCc2cc(S(=O)(=O)Nc3ccc(OC(F)(F)F)cc3)ccc21 | inactive: 71%
COc1cccc(NC(=O)c2oc3ccccc3c2NC(=O)c2ccc(OC(C)C)cc2)c1 | inactive: 65%
CC(=O)Nc1nonc1-c1nnc(SCC(=O)Nc2c(C)cccc2C)n1-c1ccccc1 | inactive: 82%
CCn1cc(C(=O)NCc2ccc(Cl)cc2)c(=O)c2cc(S(=O)(=O)N3CCc4ccccc4C3)ccc21 | inactive: 89%
CCOC(=O)c1ccc(N2C(=O)c3[nH]nc(-c4ccccc4)c3C2c2ccc(C(C)C)cc2)cc1 (centres undefined) | inactive: 100%
COc1ccc2c(CNCCc3ccco3)c(C(=O)O)n(Cc3ccc(F)cc3)c2c1 | inactive: 84%
COc1ccc2nc(N3CCN(C(=O)CS(=O)(=O)c4ccc(C)cc4)CC3)sc2c1 | inactive: 131%
COc1ccc(C)cc1NC1(c2ccccc2)C(=O)c2ccccc2C1=O | inactive: 63%
COc1ccc(OC)c(N(C)S(=O)(=O)c2ccc3c(c2)NC(=O)CC(=O)N3)c1 | inactive: 75%
CN(C)c1ccc(NC(=O)CC(NCc2cccnc2)C(=O)O)cc1 (centres undefined) | inactive: 71%
Cc1ccccc1NC(=O)c1sc2nc3n(c(=O)c2c1C)N=C(c1ccccc1)CS3 | inactive: 94%
Cc1ccccc1NC(=O)NC1(C(=O)N2CCc3ccccc32)CCCCC1 | inactive: 98%
O=c1c(-c2cc(-c3ccccc3)nc3c2COc2ccc(Cl)cc2-3)coc2ccccc12 | inactive: 75%
Cc1ccc(NC(=O)CCCn2c(=O)c3cccn3c3cccnc32)c(C)c1 | inactive: 88%
COc1cccc(CNc2sc3c(c2C(=O)Nc2ccc(OC)cc2OC)CCC3)c1 | inactive: 73%
CCC(Sc1nc2nccnc2c(=O)n1Cc1ccc(Cl)cc1)C(=O)NC1CCCCC1 (centres undefined) | inactive: 26%
COc1ccc(-n2ccn3c(CC(C)(C)CC(=O)O)nnc3c2=O)cc1 | inactive: 73%
CCOc1ccc(NC(=O)c2cnn3c2NC(C)=C(C(=O)Nc2ccc(Cl)cc2)C3c2ccc(OC)c(OC)c2)cc1 (centres undefined) | inactive: 69%
Cc1ccc(-c2cnc(C3CC3)o2)cc1S(=O)(=O)Nc1ccc(F)cc1Cl | inactive: 119%
CC(C)CNC(=O)C(=O)Nc1c2c(nn1-c1ccc(Cl)cc1)CSC2 | inactive: 129%
